# Counter-ions that a name gives are not always drawn. This is one part of the list. No stated cut-off is given here; in the data, active = 0.5 or less and inactive = the rest. Repeats are few or missing, and single values can be far off.
# Test system: HeLa VPS33A R498W KI + HA-SDC1-FLAG;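 further: HA-SDC1 level read out by In-Cell Western staining with an anti-HA antibody against the N-terminal tag, screening FDA-approved library drugs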
# Experiment: relative GAG core protein HA-SDC1 amount per cell number vs DMSO (fraction of DMSO); higher = more SDC1 (GAG core protein)
# Details: 50 µM; 24 h
row,SMILES,relative GAG core protein HA-SDC1 amount per cell number
1,CC1(C)Cc2c(-c3ccccc3)c(-c3ccc(Cl)cc3)c(CC(=O)O)n2C1 [Licofelone],active: 0.428
2,C[C@]1(OC(=O)/C=C/c2ccccc2)C[C@@H](O)[C@]2(O)C=CO[C@@H](O[C@@H]3O[C@H](CO)[C@@H](O)[C@H](O)[C@H]3O)[C@@H]21 [Harpagoside],inactive: 0.772
3,O=C(O)c1ccncc1 [Isonicotinic acid],inactive: 0.781
4,CC(=O)Oc1cc2c(s1)CCN(C(C(=O)C1CC1)c1ccccc1F)C2 (configuration not stated) [Prasugrel hydrochloride],active: 0.409
5,CCCCCN(C)CCC(O)(P(=O)(O)O)P(=O)(O)O [Ibandronate sodium],inactive: 1.19
6,COc1cc(Nc2nc3ccccc3nc2NS(=O)(=O)c2ccc(NC(=O)c3ccc(C)c(OC)c3)cc2)cc(OC)c1,inactive: 0.693
7,CC1(C)O[C@@H]2C[C@H]3[C@@H]4C[C@H](F)C5=CC(=O)C=C[C@]5(C)[C@H]4[C@@H](O)C[C@]3(C)[C@]2(C(=O)CO)O1 [Flunisolide],inactive: 0.875
8,O=C(NCCN1CCOCC1)c1ccc(Cl)cc1,inactive: 1.29
9,COC1=CC(=O)C[C@@H](C)[C@]12Oc1c(Cl)c(OC)cc(OC)c1C2=O [Griseofulvin],active: 0.286

# Test system: HeLa VPS33A KO + NLuc-VPS33A R498W;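 further: screen of an FDA-approved drug library, NanoLuc luminescence read after lysing the treated cells, taken as a measure of mutant VPS33A protein stability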
# Experiment: relative mutant VPS33A R498W amount (NanoLuc luminescence) vs DMSO (fraction of DMSO); HeLa model of a glycosaminoglycan (GAG) storage disease; KI is knock-in and KO knock-out; SDC1 is syndecan 1; higher = higher mutant VPS33A level
# Details: 50 µM; 24 h
row,SMILES,relative mutant VPS33A R498W amount
1,O=C([O-])c1ccccc1.[Na+] [Sodium benzoate],0.998
2,Cc1onc(-c2ccccc2Cl)c1C(=O)N[C@@H]1C(=O)N2[C@@H]1SC(C)(C)[C@@H]2C(=O)O [Cloxacillin Sodium],1.96
3,Cc1cnc(NC(=O)C2=C(O)c3ccccc3S(=O)(=O)N2C)s1 [Meloxicam (Mobic)],0.992
4,O=c1[nH]c(=O)n([C@H]2C[C@H](O)[C@@H](CO)O2)cc1F [Floxuridine],0.73
5,Cn1c(=O)c2c(ncn2CC(O)CO)n(C)c1=O (configuration not stated) [Dyphylline],1.03
6,CC[C@H]1OC(=O)[C@H](C)[C@@H](O[C@H]2C[C@@](C)(OC)[C@@H](O)[C@H](C)O2)[C@H](C)[C@@H](O[C@@H]2O[C@H](C)C[C@H](N(C)C)[C@H]2O)[C@](C)(O)C[C@@H](C)/C(=N\OCOCCOC)[C@H](C)[C@@H](O)[C@]1(C)O [Roxithromycin],1.08
7,CCCCC(C)(O)C/C=C/[C@H]1[C@H](O)CC(=O)[C@@H]1CCCCCCC(=O)OC (mixture of isomers) [Misoprostol],1.64
8,CC(C)OC(=O)C(C(=O)OC(C)C)=C1SC=CS1 [Malotilate],0.581
9,O=C1NCC2(CCN(CCc3ccccc3)CC2)O1 [Fenspiride HCl],1.46
10,COc1nc2ccc(Br)cc2cc1[C@@H](c1ccccc1)[C@@](O)(CCN(C)C)c1cccc2ccccc12 [Bedaquiline fumarate],1.18
11,CC1Cc2ccccc2N1NC(=O)c1ccc(Cl)c(S(N)(=O)=O)c1 (configuration not stated) [Indapamide],0.804
12,NCCC(O)(P(=O)(O)O)P(=O)(O)O [Pamidronate Disodium],1.04
13,O=C(O)C(=O)O.[NH-][C@@H]1CCCC[C@H]1[NH-].[Pt+2] [Oxaliplatin],4.31
14,CCN1CCC[C@H]1CNC(=O)c1cc(S(N)(=O)=O)ccc1OC [Levosulpiride],1.61
15,Oc1cccc(O)c1O [Pyrogallol],1.25
16,NC(=O)N/N=C/c1ccc([N+](=O)[O-])o1 [Nitrofurazone],0.316
17,CC[C@H]1OC(=O)[C@H](C)[C@@H](O[C@H]2C[C@@](C)(OC)[C@@H](O)[C@H](C)O2)[C@H](C)[C@@H](O[C@@H]2O[C@H](C)C[C@H](N(C)C)[C@H]2O)[C@](C)(O)C[C@@H](C)C(=O)[C@H](C)[C@@H](O)[C@]1(C)O [Erythromycin],1.13
18,OCCOCCN1CCN(C2=Nc3ccccc3Sc3ccccc32)CC1 [Quetiapine Fumarate],0.224
19,CCCCS(=O)(=O)N[C@@H](Cc1ccc(OCCCCC2CCNCC2)cc1)C(=O)O [Tirofiban hydrochloride monohydrate],1.47
20,CC(C)=CCC/C(C)=C/CO [Geraniol],1.45
21,Cc1ccsc1C(=CCCN1CCC[C@@H](C(=O)O)C1)c1sccc1C [Tiagabine],0.709
22,COc1ccc2cc3[n+](cc2c1OC)CCc1cc2c(cc1-3)OCO2 [Berberine Sulfate],2.56
23,COCCOC(=O)C1=C(C)NC(C)=C(C(=O)OC/C=C/c2ccccc2)C1c1cccc([N+](=O)[O-])c1 (configuration not stated) [Cilnidipine],0.195

# — the supplement of paper PMC12355420
